Over roughly 18,000 sequences, “TetR repression strength (sort-seq, GFP reporter)” has its median near 0.23; the highest 2% begin near 0.68. This is one part of the list.

UniProt P04483, sequence (P04483 whole entry): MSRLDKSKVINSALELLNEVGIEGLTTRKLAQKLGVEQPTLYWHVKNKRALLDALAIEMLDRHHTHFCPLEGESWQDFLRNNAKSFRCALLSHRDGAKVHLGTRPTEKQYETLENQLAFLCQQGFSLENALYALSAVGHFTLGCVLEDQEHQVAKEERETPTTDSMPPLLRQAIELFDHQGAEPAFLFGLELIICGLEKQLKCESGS

This assay deals with TetR (class B, Tn10) (UniProt P04483). Description: TetR repression strength (sort-seq, GFP reporter) (relative to tetO2 = 1); higher = stronger repression. The settings on record: E. coli. A digest of the protocol:
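Three independent transformations of E. coli SIG10-MAX were made with a low-copy plasmid library randomizing eight operator positions between a constitutive promoter and sfGFP, with constitutive TetR. Following 5 h at 37 °C in LB plus 50 µg/mL chloramphenicol, 10^6 cells went through FACS into 13 fluorescence bins, and each bin was sequenced by Illumina. Repression strength was defined as the top bin index plus one minus the read-weighted mean bin, divided by the unaltered operator's value. Averages included only members reaching ≥30 reads in all replicates with a CV ≤0.5.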
Sequence TCCCAATCAGTCGGAGAGA yielded a TetR repression strength of 0.278.
With TCCCGTAAAGTGTTAGAGA, the TetR repression strength came out at 0.696.
On to TCCCGACCAGTGTGAGAGA, for which the TetR repression strength was 0.426.
The figure for TCCCCCCAAGTATGAGAGA is 0.104; for TCCCATCAAGTAAACGAGA it is 0.592; for TCCCAGCCAGTAAATGAGA it is 0.509.
In turn, TCCCTCGGAGTCTGTGAGA gave a TetR repression strength of 0.215.
Regarding TCCCGGCTAGTGATGGAGA, the TetR repression strength came out at 0.31.
On to TCCCTGTCAGTGGCCGAGA, for which the TetR repression strength was 0.399.
TCCCGAGCAGTAGGTGAGA: the TetR repression strength amounted to 0.187.
TCCCGAGGAGTATGGGAGA: the TetR repression strength was 0.36.
TCCCGCGAAGTGAGTGAGA showed a TetR repression strength of 0.0178.
Sequence TCCCAGAAAGTTCGGGAGA had a TetR repression strength of 0.0678.
The figure for TCCCGGGGAGTTTGTGAGA is 0.186.
TCCCCCAAAGTTAAGGAGA displayed a TetR repression strength of 0.195.
In turn, TCCCTTTCAGTAGCGGAGA came in with a TetR repression strength of 0.798.
The sequence TCCCTATCAGTTTTTGAGA registered a TetR repression strength of 0.472.
The figure for TCCCAATGAGTGGCTGAGA is 0.0325; for TCCCCGCTAGTAGCTGAGA it is 0.193; for TCCCAGTGAGTCACAGAGA it is 0.348.
TCCCATTCAGTCAATGAGA displayed a TetR repression strength of 0.457.
Sequence TCCCACTTAGTAAGAGAGA had a TetR repression strength of 0.195.
For TCCCGATTAGTGTGGGAGA, the TetR repression strength was found to be 0.159.
In turn, TCCCGGAGAGTAGGTGAGA returned a TetR repression strength of 0.0694.
As to TCCCTACAAGTTATTGAGA, the TetR repression strength stood at 0.351.
As for TCCCCAGGAGTTATCGAGA, the figure is 0.0573; as for TCCCTGGTAGTTGCAGAGA, 0.0399.
In turn, TCCCAGGTAGTCGGAGAGA came in with a TetR repression strength of 0.277.
TCCCAAGAAGTATGGGAGA gave a TetR repression strength of 0.109.
As to TCCCGACAAGTAGCTGAGA, the TetR repression strength was found to be 0.187.
TCCCCTCCAGTACACGAGA came in with a TetR repression strength of 0.143.
In the case of TCCCAAGTAGTGGTAGAGA, the TetR repression strength was determined as 0.24.
Sequence TCCCTTATAGTTTGCGAGA gave a TetR repression strength of 0.198.
As for TCCCGGCTAGTATCAGAGA, the figure is 0.43; as for TCCCACAAAGTTAGGGAGA, 0.318; as for TCCCGACTAGTATTCGAGA, 0.207.
The figure for TCCCACCTAGTCTGTGAGA is 0.171.
The sequence TCCCGCATAGTGTCAGAGA came in with a TetR repression strength of 0.276.
For the sequence TCCCGAGTAGTGCTGGAGA, the TetR repression strength stood at 0.362.
In turn, TCCCAAGCAGTAAGTGAGA came in with a TetR repression strength of 0.166.
For TCCCTAGGAGTCAGAGAGA, the TetR repression strength was determined as 0.0852.
As to TCCCTTTAAGTCGTGGAGA, the TetR repression strength was 0.211.
As for TCCCGAACAGTCAGCGAGA, the figure is 0.145.
In turn, TCCCCAAGAGTCGTGGAGA yielded a TetR repression strength of 0.101.
As for TCCCTGAGAGTAGCTGAGA, the TetR repression strength was determined as 0.372.
On to TCCCATTAAGTAGGGGAGA, for which the TetR repression strength amounted to 0.256.
TCCCGACCAGTGACTGAGA: the TetR repression strength was 0.362.
As to TCCCCCAGAGTCGACGAGA, the TetR repression strength was 0.84.
In the case of TCCCATAGAGTCCATGAGA, the TetR repression strength was determined as 0.215.
TCCCGAGTAGTGGCTGAGA: the TetR repression strength was 0.311.
Turning to TCCCATTTAGTCTCAGAGA, the TetR repression strength worked out at 0.344.
For TCCCGTGTAGTGGGTGAGA, the TetR repression strength is 0.117.
Consider TCCCTTCAAGTACTGGAGA, for which the TetR repression strength stood at 0.0375.
Take TCCCAGTCAGTGAAAGAGA: the TetR repression strength was 0.62.
The figure for TCCCACCGAGTTAGTGAGA is 0.27; for TCCCAGGGAGTCACAGAGA it is 0.214; for TCCCGTCAAGTCGGGGAGA it is 0.334.
TCCCGGTAAGTAGGCGAGA gave a TetR repression strength of 1.05.
TCCCATAAAGTGAAAGAGA displayed a TetR repression strength of 0.413.
The sequence TCCCTGGGAGTATGAGAGA showed a TetR repression strength of 0.46.
In turn, TCCCTGCTAGTGGGGGAGA registered a TetR repression strength of 0.0729.
In turn, TCCCGACAAGTAGTAGAGA showed a TetR repression strength of 0.424.
TCCCCCTTAGTCGAAGAGA came in with a TetR repression strength of 0.277.
Regarding TCCCTCCGAGTGGGCGAGA, the TetR repression strength is 0.117.
As to TCCCGATCAGTAATGGAGA, the TetR repression strength stood at 0.354.
The figure for TCCCGGGGAGTGCCGGAGA is 0.174.
Turning to TCCCGGGTAGTGTACGAGA, the TetR repression strength was determined as 0.254.
For TCCCGATCAGTTACTGAGA, the TetR repression strength was determined as 0.552.
The sequence TCCCAGCCAGTTCCAGAGA yielded a TetR repression strength of 0.244.
In turn, TCCCAGGTAGTTGTGGAGA showed a TetR repression strength of 0.505.
Take TCCCTTGTAGTTTTGGAGA: the TetR repression strength is 0.199.
Take TCCCGGCCAGTCATAGAGA: the TetR repression strength was 0.522.
Regarding TCCCGTACAGTGACCGAGA, the TetR repression strength was 0.312.
TCCCACCTAGTCCGGGAGA yielded a TetR repression strength of 0.368.
TCCCGTCGAGTGGATGAGA showed a TetR repression strength of 0.133.
With TCCCCGTCAGTATTGGAGA, the TetR repression strength worked out at 0.51.
Sequence TCCCTAGCAGTACGAGAGA registered a TetR repression strength of 0.139.
TCCCGGACAGTCCCGGAGA: the TetR repression strength amounted to 0.27.
As for TCCCCTGGAGTCTGTGAGA, the figure is 0.0718; as for TCCCACAGAGTGGCAGAGA, 0.348; as for TCCCGGCGAGTTGAAGAGA, 0.204.
Consider TCCCAAGGAGTTGCTGAGA, for which the TetR repression strength was 0.204.
The figure for TCCCGCACAGTCGCCGAGA is 0.287; for TCCCGATCAGTGAGCGAGA it is 0.544; for TCCCTTTGAGTATTAGAGA it is 0.39.
Sequence TCCCTTGCAGTGCGCGAGA had a TetR repression strength of 0.173.
For the sequence TCCCCCGGAGTATGGGAGA, the TetR repression strength worked out at 0.145.
TCCCCTTAAGTAACTGAGA had a TetR repression strength of 0.299.
The sequence TCCCGGGTAGTATGTGAGA gave a TetR repression strength of 0.237.
TCCCAAAAAGTCGTAGAGA returned a TetR repression strength of 0.157.
As for TCCCCACAAGTCACCGAGA, the TetR repression strength amounted to 0.336.
For TCCCGACCAGTGTCTGAGA, the TetR repression strength amounted to 0.256.
For the sequence TCCCTTTGAGTAAATGAGA, the TetR repression strength came out at 0.33.
TCCCACGTAGTTATGGAGA showed a TetR repression strength of 0.525.
The sequence TCCCCGAAAGTGCGTGAGA yielded a TetR repression strength of 0.183.
TCCCGACTAGTCGGGGAGA gave a TetR repression strength of 0.275.
Sequence TCCCAGTGAGTCAAAGAGA yielded a TetR repression strength of 0.187.
The figure for TCCCGCTAAGTTGGTGAGA is 0.176; for TCCCGTATAGTAAAGGAGA it is 0.0444; for TCCCAGGCAGTGAAGGAGA it is 0.0977.
Sequence TCCCAACGAGTACAGGAGA displayed a TetR repression strength of 0.259.
The figure for TCCCGTTAAGTGCGAGAGA is 0.109.
